According to the RNAGym collection of RNA variant scans (doi:10.7554/elife.90254):
The source gives no read counts; variants with many changes may rest on few reads.

B1: LINE1-full (parent)
chain: UACGUAGGUGGUUUUCCCCUGAUAGUGCUAAGGGGGCCUGGAAGUUUGGACUGGGCAGAGCUCAACACAGCGUGGCAAAGUGGCUGUGGCUAGACUGCCUCUCUGGAUUCCUCGUCACUCAGCAGGGCAUCUCUGAGAGAAAUGCC

Variants of: B1
Assay: self-cleavage, relative activity (ratio to wild type); higher = more cleavage; in vitro, sequencing; the parent is a self-cleaving ribozyme

Row | Variant | self-cleavage
1 | UACGUAGGUGGUUUUCCCCUGAUAGUGCUAAGGGGGCCUGGAAGUUUGGACUGGGCAGAGCUCAACACAGCGUGGCAAAGUGGCUGCGGCUAGACUGCCUCUCUGGAUCCCUCGUCACUCAGCAGGGCAUCUCUGAGUGAAAUGCC [U87C U109C A138U] | 0
2 | UACGUAGGUGGUUUUCCCCUGAUAGUGCUAAGGGGGCCUGGAAGUUUGGACUGGGCAGAGCUCAACACAGCGUGGCAAAGUGGCUGUGACUAGACCGCCUCUCUGGAUUCCUCGUCACUCAUCAGGGCAUCUCUGAGAGAAGUGCC [G89A U96C G122U A142G] | 0.08
3 | UACGUAGGUGGUUUUCCCCUGAUAGUGCUAAGGGGGCCUGGAAGUUUGGACUGGGCAGAGCUCAACACAGCGUGGCAAAGUGGCUGUGGAUAGACUGCCUCUCUGGAUUCCUCGUCACUCAGCAGGGCAUCUCUGGGGGAAAUGCC [C90A A136G A138G] | 0
4 | UACGUAGGUGGUUUUCCCCUGAUAGUGCUAAGGGGGCCUGGAAGUUUGGACUGGGCAGAGCUCAACACAGCGUGGCAAAGUGGCUGUGUCUAGACUGCCUCUCUGGAUUCCUCGUCACUCAGCAGGGCAUCCCGGAGAGAAAUGCC [G89U U132C U134G] | 0.02
5 | UACGUAGGUGGUUUUCCCCUGAUAGUGCUAAGGGGGCCUGGAAGUUUGGACUGGGCAGAGCUCAACACAGCGUGGCAAAGUGGCUGCGGCUAGACUGCCACUCUGGAUUCCUCGUCACUCAGCAGGGCAUCUCUGGGAGAAAUGCC [U87C U100A A136G] | 0.13
6 | UACGUAGGUGGUUUUCCCCUGAUAGUGCUAAGGGGGCCUGGAAGUUUGGACUGGGCAGAGCUCAACACAGCGUGGCAAAGUGGCUGCGGCAAGACUGCCUCUCUGGAUUCCACGUCACUCAGCAGGGCAUCUCCGAGAGAAAUGCC [U87C U91A U112A U134C] | 0.07
7 | UACGUAGGUGGUUUUCCCCUGAUAGUGCUAAGGGGGCCUGGAAGUUUGGACUGGGCAGAGCUCAACACAGCGUGGCAAAGUGGCUGUGACUAGACUACCUCUCUGGAUUCCUCGCCACUCAGCAGGGCAUCUCUGAGAGAAAUGCC [G89A G97A U115C] | 0.03
8 | UACGUAGGUGGUUUUCCCCUGAUAGUGCUAAGGGGGCCUGGAAGUUUGGACUGGGCAGAGCUCAACACAGCGUGGCAAAGUGGCUGAGGCUAGACUGCCUCUCCGGAUUCCUUGUCACUCAGCAGGGCAUCUCGGAGAGAAAUGCC [U87A U104C C113U U134G] | 0.13
9 | UACGUAGGUGGUUUUCCCCUGAUAGUGCUAAGGGGGCCUGGAAGUUUGGACUGGGCAGAGCUCAACACAGCGUGGCAAAGUGGCUGAGGCUAGACUGCCACUCUGGAUUCCCCGUCACUCAGCAGGGCAUCUCUGAGAGAAAUGCC [U87A U100A U112C] | 0.05
10 | UACGUAGGUGGUUUUCCCCUGAUAGUGCUAAGGGGGCCUGGAAGUUUGGACUGGGCAGAGCUCAACACAGCGUGGCAAAGUGGCUGAGGCUAGACAGCCUCUCCGGAUUCCUCGUCACUCAGCAGGGCAUCUCUGAGAGAAAUGCC [U87A U96A U104C] | 0.1
11 | UACGUAGGUGGUUUUCCCCUGAUAGUGCUAAGGGGGCCUGGAAGUUUGGACUGGGCAGAGCUCAACACAGCGUGGCAAAGUGGCUGAGGCUAGACUGCCACUCUGGAUUCCUCGUCACUCGGCAGGGCAUCUCUGAGAGAAAUGCC [U87A U100A A121G] | 0.02
12 | UACGUAGGUGGUUUUCCCCUGAUAGUGCUAAGGGGGCCUGGAAGUUUGGACUGGGCAGAGCUCAACACAGCGUGGCAAAGUGGCUGAGGCUAGACUGCCUCUCUGGAUUCCUCGUCACUCAGCAGGGCACCUCUGGGAGAAAUGCC [U87A U130C A136G] | 0.05
13 | UACGUAGGUGGUUUUCCCCUGAUAGUGCUAAGGGGGCCUGGAAGUUUGGACUGGGCAGAGCUCAACACAGCGUGGCAAAGUGGCUGUGGAUAGACUGCCUCUCUGGAUUCCUCGCCACUCGGCAGGGCAUCUCUGAGUGAAAUGCC [C90A U115C A121G A138U] | 0.01
14 | UACGUAGGUGGUUUUCCCCUGAUAGUGCUAAGGGGGCCUGGAAGUUUGGACUGGGCAGAGCUCAACACAGCGUGGCAAAGUGGCUGUGGAUGGACUGCCUCUCUGGAUUCCUCGUCACUCAGCAGGGCAUCUCCGAGAGAAAUGCC [C90A A92G U134C] | 0.06
15 | UACGUAGGUGGUUUUCCCCUGAUAGUGCUAAGGGGGCCUGGAAGUUUGGACUGGGCAGAGCUCAACACAGCGUGGCAAAGUGGCUGAGGCUAGACUGCCUCUCUGGAUUCCUCGUCACUCAGCAGGGCAACUCUGUGAGAAAUGCC [U87A U130A A136U] | 0.07
16 | UACGUAGGUGGUUUUCCCCUGAUAGUGCUAAGGGGGCCUGGAAGUUUGGACUGGGCAGAGCUCAACACAGCGUGGCAAAGUGGCUGCGGCUAGACUGCCUCUCUGGGUUCCUCGUCACUCAGCAGGGCACCUCUGAGAGAGAUGCC [U87C A107G U130C A141G] | 0.34
17 | UACGUAGGUGGUUUUCCCCUGAUAGUGCUAAGGGGGCCUGGAAGUUUGGACUGGGCAGAGCUCAACACAGCGUGGCAAAGUGGCUGAGGCUAGACUGCCUCUCUGGAUCCUUCGUCACUCAGCAGGGCAUCUCUGAGAGAAAUGCC [U87A U109C C111U] | 0.08
18 | UACGUAGGUGGUUUUCCCCUGAUAGUGCUAAGGGGGCCUGGAAGUUUGGACUGGGCAGAGCUCAACACAGCGUGGCAAAGUGGCUGCGGCUAGGCUGCCUCUCUGGAUUCCUCGUCACUCUGCAGGGCAUCUCUGAGAGAAAUGCC [U87C A94G A121U] | 0.12
19 | UACGUAGGUGGUUUUCCCCUGAUAGUGCUAAGGGGGCCUGGAAGUUUGGACUGGGCAGAGCUCAACACAGCGUGGCAAAGUGGCUGAGGCUAGACUGCCUCUCUGGACUCCUCGUCACUCAGCAGGGCAUCUCUGGGAGAAAUGCC [U87A U108C A136G] | 0.07
20 | UACGUAGGUGGUUUUCCCCUGAUAGUGCUAAGGGGGCCUGGAAGUUUGGACUGGGCAGAGCUCAACACAGCGUGGCAAAGUGGCUGAGGCUAGACUGCCUCUCUGGAUUCCUCGUCACUCAGCAGGGCAUCUCAGCGAGAAAUGCC [U87A U134A A136C] | 0.06

Row | Variant | self-cleavage
21 | UACGUAGGUGGUUUUCCCCUGAUAGUGCUAAGGGGGCCUGGAAGUUUGGACUGGGCAGAGCUCAACACAGCGUGGCAAAGUGGCUGAGGCUAGACUGCCUCUCUGGAUUCCUCGUCACUCAGCAGGGCACCUCUGAGGGAAAUGCC [U87A U130C A138G] | 0.26
22 | UACGUAGGUGGUUUUCCCCUGAUAGUGCUAAGGGGGCCUGGAAGUUUGGACUGGGCAGAGCUCAACACAGCGUGGCAAAGUGGCUGCGGCUAGACUGCCUCUCUGGAUUCCUCGUCACUCAGCAGGGCAUCUCUGAGAGGAGUGCC [U87C A140G A142G] | 0.24
23 | UACGUAGGUGGUUUUCCCCUGAUAGUGCUAAGGGGGCCUGGAAGUUUGGACUGGGCAGAGCUCAACACAGCGUGGCAAAGUGGCUGCGGCUAGACUGCCUCUCUGCAUUCCUCGUCACUCUGCAGGGCAUCUCUGAGAGAAAUGCC [U87C G106C A121U] | 0.2
24 | UACGUAGGUGGUUUUCCCCUGAUAGUGCUAAGGGGGCCUGGAAGUUUGGACUGGGCAGAGCUCAACACAGCGUGGCAAAGUGGCUGCGGCUAGACUGCCUCUCUGGAUUCCUCGUCACUCAGCAGGGCACCCCUGAGAGAAAUGCC [U87C U130C U132C] | 0.35
25 | UACGUAGGUGGUUUUCCCCUGAUAGUGCUAAGGGGGCCUGGAAGUUUGGACUGGGCAGAGCUCAACACAGCGUGGCAAAGUGGCUGCGGCUAGACUACCUCUCUGGAUUCCUCGACACUCAGCAGGGCAUCUCUGAGAGAAAUGCC [U87C G97A U115A] | 0.04
26 | UACGUAGGUGGUUUUCCCCUGAUAGUGCUAAGGGGGCCUGGAAGUUUGGACUGGGCAGAGCUCAACACAGCGUGGCAAAGUGGCUGAGGCUAGACAGCCUCUCUGGACUCCUCGUCACUCAGCAGGGCAUCUCUGAGAGAAAUGCC [U87A U96A U108C] | 0.11
27 | UACGUAGGUGGUUUUCCCCUGAUAGUGCUAAGGGGGCCUGGAAGUUUGGACUGGGCAGAGCUCAACACAGCGUGGCAAAGUGGCUGAGGCUAGACUGCCUCUCUGGACUCCUCGCCACUCAGCAGGGCAUCUCUGAGUGAAAUGCC [U87A U108C U115C A138U] | 0.14
28 | UACGUAGGUGGUUUUCCCCUGAUAGUGCUAAGGGGGCCUGGAAGUUUGGACUGGGCAGAGCUCAACACAGCGUGGCAAAGUGGCUGUGGAUAGACUGCCUCUCUGGAUUCCUCGUCACUCAGCAGGGCACCUCUGGGAGAAAUGCC [C90A U130C A136G] | 0.02
29 | UACGUAGGUGGUUUUCCCCUGAUAGUGCUAAGGGGGCCUGGAAGUUUGGACUGGGCAGAGCUCAACACAGCGUGGCAAAGUGGCUGCGGCUAGACUGCCUCUCUGGAUUCCUCGUCACUCAGCGGGGCAUCUCUGAGAGGAAUGCC [U87C A124G A140G] | 0.16
30 | UACGUAGGUGGUUUUCCCCUGAUAGUGCUAAGGGGGCCUGGAAGUUUGGACUGGGCAGAGCUCAACACAGCGUGGCAAAGUGGCUGCGGCUAGACUGCCUCUCCUGAUUCCUCAUCACUCAGCAGGGCAUCUCUGAGAGAAAUGCC [U87C U104C G105U G114A] | 0.25
31 | UACGUAGGUGGUUUUCCCCUGAUAGUGCUAAGGGGGCCUGGAAGUUUGGACUGGGCAGAGCUCAACACAGCGUGGCAAAGUGGCUGUGGAUAGGCUGCCUCUCUGGAACCCUCGUCACUCAGCAGGGCAUCUCUGAGAGAAAUGCC [C90A A94G U108A U109C] | 0.11
32 | UACGUAGGUGGUUUUCCCCUGAUAGUGCUAAGGGGGCCUGGAAGUUUGGACUGGGCAGAGCUCAACACAGCGUGGCAAAGUGGCUGCGGCUAGACUGCCUCUCUGGAUCCCUCGUCACUCAGCAGGGCGUCUCUGAGAGAAAUGCC [U87C U109C A129G] | 0.2
33 | UACGUAGGUGGUUUUCCCCUGAUAGUGCUAAGGGGGCCUGGAAGUUUGGACUGGGCAGAGCUCAACACAGCGUGGCAAAGUGGCUGCGGCUAGACAGCCUCUCUGGAUUCCUCGUCACUCAGCAGGGCAUCUCUGAGGGAAAUGCC [U87C U96A A138G] | 0
34 | UACGUAGGUGGUUUUCCCCUGAUAGUGCUAAGGGGGCCUGGAAGUUUGGACUGGGCAGAGCUCAACACAGCGUGGCAAAGUGGCUGCGGCUAGACUGCCUCUCUGGCUUCCUCGUCACUCAGCAGGGCAUCUCUGAGAGAAGUGCC [U87C A107C A142G] | 0.57
35 | UACGUAGGUGGUUUUCCCCUGAUAGUGCUAAGGGGGCCUGGAAGUUUGGACUGGGCAGAGCUCAACACAGCGUGGCAAAGUGGCUGAGGCUAGACUGCCUCUCUGGAUUCCUCGUCACUCAGCAGGGCAUCCCUGAGAGAGAUGCC [U87A U132C A141G] | 0.06
36 | UACGUAGGUGGUUUUCCCCUGAUAGUGCUAAGGGGGCCUGGAAGUUUGGACUGGGCAGAGCUCAACACAGCGUGGCAAAGUGGCUGCGGCUAGACUGCCUCUCCUGAUUCCUCGUCACUCAGCAGGGCAUCUCUGAGAGAAAUGCC [U87C U104C G105U] | 0
37 | UACGUAGGUGGUUUUCCCCUGAUAGUGCUAAGGGGGCCUGGAAGUUUGGACUGGGCAGAGCUCAACACAGCGUGGCAAAGUGGCUGUAGCUAGACUGCCCCCCUGGAUUCCUCGUCGCUCAGCAGGGCAUCUCUGAGAGAAAUGCC [G88A U100C U102C A117G] | 0.03
38 | UACGUAGGUGGUUUUCCCCUGAUAGUGCUAAGGGGGCCUGGAAGUUUGGACUGGGCAGAGCUCAACACAGCGUGGCAAAGUGGCUGAGGCUAGACUGCCUCUCUGGAUUCCCCGUCACUCAGCAUGGCAUCUCUGAGAGAAAUGCC [U87A U112C G125U] | 0.06
39 | UACGUAGGUGGUUUUCCCCUGAUAGUGCUAAGGGGGCCUGGAAGUUUGGACUGGGCAGAGCUCAACACAGCGUGGCAAAGUGGCUGUGCCCAGACCGCCUCUCUGGAUUCCUCGUCACUCAGCAGGGCAUCUCUGAGAGAAAUGCC [G89C U91C U96C] | 0
